Laboratory results from the supplement of paper PMC3334620.
Whole data set: some 33,000 sequences, median “E-score (-0.5 to 0.5)” near -0.053, cut for the highest 2% near 0.37. The list shows a part of the results.

These sequences were tested against Hap1 (UniProt P0CE41) (assay: PBM E-score (8-mer binding enrichment) (E-score (-0.5 to 0.5)); higher = stronger / more preferred TF binding; most listed sequences are background and not binding sites). Settings: protein concentration: 200 nM; construct: GST-DNA-binding domain.
UniProt P0CE41, sequence (P0CE41 whole entry, the tested form may be a part): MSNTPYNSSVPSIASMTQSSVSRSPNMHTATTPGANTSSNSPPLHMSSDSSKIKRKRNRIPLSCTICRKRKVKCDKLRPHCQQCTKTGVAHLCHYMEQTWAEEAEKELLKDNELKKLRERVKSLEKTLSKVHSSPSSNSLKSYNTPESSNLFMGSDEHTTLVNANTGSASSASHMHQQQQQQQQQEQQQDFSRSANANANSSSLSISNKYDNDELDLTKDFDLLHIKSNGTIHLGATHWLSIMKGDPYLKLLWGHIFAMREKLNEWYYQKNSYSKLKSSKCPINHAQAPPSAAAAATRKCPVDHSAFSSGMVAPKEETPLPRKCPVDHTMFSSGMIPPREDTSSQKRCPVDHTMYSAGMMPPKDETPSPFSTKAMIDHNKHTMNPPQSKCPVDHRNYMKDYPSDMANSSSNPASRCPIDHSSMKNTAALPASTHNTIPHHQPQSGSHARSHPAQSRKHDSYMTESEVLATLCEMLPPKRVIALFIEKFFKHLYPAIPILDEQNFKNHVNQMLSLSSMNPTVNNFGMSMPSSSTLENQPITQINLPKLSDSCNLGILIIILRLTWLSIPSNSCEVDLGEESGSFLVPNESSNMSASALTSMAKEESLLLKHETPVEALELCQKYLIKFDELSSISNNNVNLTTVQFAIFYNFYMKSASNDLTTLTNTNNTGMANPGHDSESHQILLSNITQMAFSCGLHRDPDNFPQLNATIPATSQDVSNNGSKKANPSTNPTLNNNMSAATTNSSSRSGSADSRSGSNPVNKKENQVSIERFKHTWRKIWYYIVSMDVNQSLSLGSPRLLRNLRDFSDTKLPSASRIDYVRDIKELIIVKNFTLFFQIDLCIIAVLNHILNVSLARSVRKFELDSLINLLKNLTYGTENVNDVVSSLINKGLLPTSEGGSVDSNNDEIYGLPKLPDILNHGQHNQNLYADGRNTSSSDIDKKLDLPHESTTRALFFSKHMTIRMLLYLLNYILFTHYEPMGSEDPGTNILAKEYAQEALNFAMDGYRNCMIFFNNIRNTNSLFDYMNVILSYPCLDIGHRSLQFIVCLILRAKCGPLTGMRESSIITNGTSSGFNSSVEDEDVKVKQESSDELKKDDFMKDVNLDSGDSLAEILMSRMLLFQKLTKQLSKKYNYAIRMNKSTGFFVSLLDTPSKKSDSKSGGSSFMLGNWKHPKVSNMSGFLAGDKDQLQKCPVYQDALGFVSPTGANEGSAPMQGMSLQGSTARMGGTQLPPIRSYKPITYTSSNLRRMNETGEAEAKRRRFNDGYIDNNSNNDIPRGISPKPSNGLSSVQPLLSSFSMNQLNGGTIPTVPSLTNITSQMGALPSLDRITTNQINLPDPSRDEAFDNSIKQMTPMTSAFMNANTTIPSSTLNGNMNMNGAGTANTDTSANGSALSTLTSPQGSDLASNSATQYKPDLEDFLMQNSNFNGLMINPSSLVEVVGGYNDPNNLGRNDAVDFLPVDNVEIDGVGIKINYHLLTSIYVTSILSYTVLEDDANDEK
Method in brief: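 Full-length yeast transcription factors or their DNA-binding domains, GST-tagged and expressed with PURExpress, were applied at about 100-200 nM to universal all-10-mer Agilent arrays. These arrays had been made double-stranded by primer extension on fresh or once-stripped slides. Detection used fluorescent anti-GST, normalisation used masliner, and E-scores for ungapped eight-base words pooled with reverse complements came from the Universal PBM Analysis Suite.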
For AAGAACCG, the “PBM E-score” value was 0.198. In the case of GACCGCAA, the “PBM E-score” value is reported as 0.228. GCAACCTA was tested, and the “PBM E-score” value was -0.245. For GCGGTTCA, the “PBM E-score” value was -0.0191. With CCCCCAAG the “PBM E-score” value was -0.195. AGCCGAAC was tested, and the “PBM E-score” value was 0.227. CCAGCACG was tested, and the “PBM E-score” value was -0.13. GCCAAAAA was tested, and the “PBM E-score” value was -0.0668. ATAAACAC was tested, and the “PBM E-score” value was 0.0203. With CGCCGATC the “PBM E-score” value was 0.326. For TGGGACAA, the “PBM E-score” value was -0.222. For ACGAACAG, the “PBM E-score” value was -0.11. In the case of AACTACAT, the “PBM E-score” value is reported as -0.196. With ACTTCTAT the “PBM E-score” value was -0.128. In the case of CCTCCAGG, the “PBM E-score” value is reported as -0.256. CACAAACC was tested, and the “PBM E-score” value was -0.0855. In the case of ATGCACGA, the “PBM E-score” value is reported as -0.0476. For CTCAGGAC, the “PBM E-score” value was -0.0684. TGACTAAA was tested, and the “PBM E-score” value was -0.243. In the case of CTAAATAC, the “PBM E-score” value is reported as -0.0213. CTTGATGA was tested, and the “PBM E-score” value was -0.0237. With TGGGCCCA the “PBM E-score” value was 0.00355. In the case of TAACCAAA, the “PBM E-score” value is reported as -0.07. With AAAAGGCT the “PBM E-score” value was 0.0332. In the case of ACTAGGTA, the “PBM E-score” value is reported as -0.184. For CCGACATA, the “PBM E-score” value was 0.256. For ATTGAGAA, the “PBM E-score” value was -0.0261. ACCGTCGA was tested, and the “PBM E-score” value was -0.0899. For GGCGTAAA, the “PBM E-score” value was 0.137. ACCTGTCG was tested, and the “PBM E-score” value was 0.049. In the case of CGTCGAAG, the “PBM E-score” value is reported as -0.151. With CGTCCATC the “PBM E-score” value was -0.00073. CGAAGATC was tested, and the “PBM E-score” value was 0.00962. For AGTGGTAA, the “PBM E-score” value was -0.143. With CCTTGGAA the “PBM E-score” value was -0.164. For GTGGCGGA, the “PBM E-score” value was 0.136. For AGGATACA, the “PBM E-score” value was -0.212. In the case of AAACTCTT, the “PBM E-score” value is reported as -0.164. For GACAAGGA, the “PBM E-score” value was -0.157. In the case of CTAGTGCC, the “PBM E-score” value is reported as 0.0006. In the case of AGGGATTA, the “PBM E-score” value is reported as -0.136. AGAAATCC was tested, and the “PBM E-score” value was 0.194. In the case of AATCCGTC, the “PBM E-score” value is reported as 0.232. In the case of CGAAGAAG, the “PBM E-score” value is reported as -0.035. ACCCAAGC was tested, and the “PBM E-score” value was -0.0723. For GAACGGGA, the “PBM E-score” value was 0.144. In the case of CCTGAGCA, the “PBM E-score” value is reported as -0.151. ACTACCAC was tested, and the “PBM E-score” value was -0.204. With ACTACCTG the “PBM E-score” value was -0.0916. For GAGTGGCA, the “PBM E-score” value was 0.0149. With AGTCTCAA the “PBM E-score” value was -0.154. In the case of GTACACAC, the “PBM E-score” value is reported as -0.0616. In the case of CAGCCACG, the “PBM E-score” value is reported as -0.0824. With ACAAGGCA the “PBM E-score” value was -0.133. CCTAATTA was tested, and the “PBM E-score” value was -0.126. With CCCCCATC the “PBM E-score” value was -0.154. For GTCCTTAA, the “PBM E-score” value was -0.159. In the case of AATCCGGC, the “PBM E-score” value is reported as 0.37. With TAGGTCAA the “PBM E-score” value was -0.27. For CGTAATAG, the “PBM E-score” value was -0.0367. TCCGTCCA was tested, and the “PBM E-score” value was 0.227. With ATAGTCTA the “PBM E-score” value was 0.0347. With CAGTCATC the “PBM E-score” value was -0.00405. CCACCTGC was tested, and the “PBM E-score” value was -0.121. In the case of CCTTTCTC, the “PBM E-score” value is reported as -0.16. CGTACCGA was tested, and the “PBM E-score” value was 0.164. ACAAACAA was tested, and the “PBM E-score” value was -0.0939. With CTGCATCC the “PBM E-score” value was -0.0309. In the case of ATATATTC, the “PBM E-score” value is reported as 0.211. With ACCCGAAA the “PBM E-score” value was 0.31. For ACGAGGTC, the “PBM E-score” value was -0.17. In the case of GGGTATTA, the “PBM E-score” value is reported as 0.282. For CATAGAGG, the “PBM E-score” value was -0.284. For GCGGGTAA, the “PBM E-score” value was 0.0277. In the case of AGCATTAT, the “PBM E-score” value is reported as -0.199. With GGCCGTAC the “PBM E-score” value was 0.216. In the case of CGTCATGA, the “PBM E-score” value is reported as -0.0955. ATACCGAG was tested, and the “PBM E-score” value was 0.285. CTCATTTC was tested, and the “PBM E-score” value was -0.00804. CGTGAACA was tested, and the “PBM E-score” value was 0.0105. AATTAGGC was tested, and the “PBM E-score” value was -0.118. ATATGTGC was tested, and the “PBM E-score” value was 0.00425. For ATTTGCCC, the “PBM E-score” value was 0.16. For ACTGGTAC, the “PBM E-score” value was 0.0233. In the case of GTAGTGGA, the “PBM E-score” value is reported as -0.0241. In the case of ACCACTCG, the “PBM E-score” value is reported as 0.0402. In the case of CCCTCCTC, the “PBM E-score” value is reported as -0.185. With AGTCTTTG the “PBM E-score” value was -0.308. ATAGCAGC was tested, and the “PBM E-score” value was -0.11. In the case of AAATAAGT, the “PBM E-score” value is reported as -0.138. In the case of ACCCTAGC, the “PBM E-score” value is reported as -0.01. In the case of ATACATAC, the “PBM E-score” value is reported as -0.0954. With GCTGAGGA the “PBM E-score” value was -0.111. With ACGGTTAG the “PBM E-score” value was -0.111. In the case of TAACAGCA, the “PBM E-score” value is reported as -0.0526. With AGGAATGC the “PBM E-score” value was -0.253. In the case of AATCCGAG, the “PBM E-score” value is reported as 0.338. In the case of AACAGCAC, the “PBM E-score” value is reported as 0.0482. With GGCCTTGA the “PBM E-score” value was 0.00297. For TCTTTCAA, the “PBM E-score” value was -0.249. With CTTTGACC the “PBM E-score” value was 0.0134. For ACGTACCA, the “PBM E-score” value was -0.204. With AATCTCTC the “PBM E-score” value was -0.0993. In the case of GCATCGGA, the “PBM E-score” value is reported as 0.383. In the case of CGGATTCA, the “PBM E-score” value is reported as 0.175. With GTTTTGCA the “PBM E-score” value was -0.151. In the case of GAGCTTCA, the “PBM E-score” value is reported as -0.0142. AGTTTCTG was tested, and the “PBM E-score” value was -0.104. In the case of CGAACGAA, the “PBM E-score” value is reported as 0.0587. With AGCTCTCA the “PBM E-score” value was 0.027. GTTTAGTA was tested, and the “PBM E-score” value was -0.0458. AAGCTCTG was tested, and the “PBM E-score” value was -0.315. CTAAGCAA was tested, and the “PBM E-score” value was -0.168. In the case of ACGAATTG, the “PBM E-score” value is reported as -0.118. GATCGAAC was tested, and the “PBM E-score” value was -0.0567. CAAGTTTA was tested, and the “PBM E-score” value was -0.0421. For GCGGTTAC, the “PBM E-score” value was 0.199. For CCCAGTGC, the “PBM E-score” value was 0.0922. With GTACCCAA the “PBM E-score” value was -0.264. In the case of CACATCTA, the “PBM E-score” value is reported as -0.0395. For GACTAGTC, the “PBM E-score” value was -0.117. AGTATACC was tested, and the “PBM E-score” value was 0.0345. For CAGAACCC, the “PBM E-score” value was -0.0493. With CTGCCCTC the “PBM E-score” value was -0.222. In the case of GCGACCAC, the “PBM E-score” value is reported as 0.0929. For AGAACCGA, the “PBM E-score” value was 0.253. AATCCGAA was tested, and the “PBM E-score” value was 0.366. For GCATTTCA, the “PBM E-score” value was -0.03. AGGTTCGG was tested, and the “PBM E-score” value was 0.252. For GATATGGA, the “PBM E-score” value was 0.237. With AGGCGACA the “PBM E-score” value was 0.0143. For ATACATTA, the “PBM E-score” value was -0.15. For ATCCGTGG, the “PBM E-score” value was 0.329. AAGCTGGC was tested, and the “PBM E-score” value was -0.198. CAGGGAAA was tested, and the “PBM E-score” value was -0.0363. In the case of AATGTCCC, the “PBM E-score” value is reported as 0.104. AGACCGGC was tested, and the “PBM E-score” value was 0.235. AGGGGTGA was tested, and the “PBM E-score” value was -0.27. CAAACGGG was tested, and the “PBM E-score” value was 0.11. CCGCAGCG was tested, and the “PBM E-score” value was 0.2. GAACCGTA was tested, and the “PBM E-score” value was 0.0759. GCGTAAAC was tested, and the “PBM E-score” value was 0.244. With CTCGCTGA the “PBM E-score” value was 0.0537. With ACTATCGA the “PBM E-score” value was -0.0147. With ACTTTGGC the “PBM E-score” value was 0.00084. With ATAAAACG the “PBM E-score” value was 0.129. For GGCACAAC, the “PBM E-score” value was -0.0668. For TGTTCCAA, the “PBM E-score” value was -0.217. In the case of CAAAGGTA, the “PBM E-score” value is reported as -0.221. CCTCACAC was tested, and the “PBM E-score” value was -0.16. In the case of ACTACTGC, the “PBM E-score” value is reported as -0.124. In the case of CGAGCTCC, the “PBM E-score” value is reported as 0.181. GTTCCTAA was tested, and the “PBM E-score” value was 0.0422. With CCAACTCA the “PBM E-score” value was -0.0392. ACATTGAC was tested, and the “PBM E-score” value was -0.114. GCATGAGA was tested, and the “PBM E-score” value was -0.107. In the case of CCAAATCC, the “PBM E-score” value is reported as 0.0982. With ACATTTCC the “PBM E-score” value was 0.23. In the case of GCGAGGGA, the “PBM E-score” value is reported as -0.174. ACATGTTG was tested, and the “PBM E-score” value was -0.0202. GATTCAGC was tested, and the “PBM E-score” value was -0.0382. For TCCTATAA, the “PBM E-score” value was -0.126. In the case of TGAAGAAA, the “PBM E-score” value is reported as -0.0563. For GAAGACAA, the “PBM E-score” value was -0.0986. For CAATAATG, the “PBM E-score” value was -0.0747. For GCCTAGAA, the “PBM E-score” value was -0.0616. For CTATCCGA, the “PBM E-score” value was 0.113. In the case of CAGACTGG, the “PBM E-score” value is reported as -0.398. For CCACATCC, the “PBM E-score” value was 0.126. GGTTGTAC was tested, and the “PBM E-score” value was 0.127. CAAAAATA was tested, and the “PBM E-score” value was 4e-05. For GTCGAAAC, the “PBM E-score” value was 0.0168.
